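Protocol summary: plate cells (96-well), add compound at 5 concentrations, incubate 48 h, interpolate endpoints linearly. Abbreviation: GI50, concentration required for 50% inhibition of growth.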 The source made the active and inactive calls. Rule as the data show it: active = GI50 up to about 1.1 µM and inactive = higher.
tested on: NCI-H322M; assay: NCI anticancer screen, dose series, 48 h

SMILES	GI50
CN1CCN(CC(=O)Nc2cccc3ccccc23)CC1	inactive: > 100 µM
O=C(O)c1oc(C(=O)O)c(C(=O)O)c1C(=O)O	inactive: > 100 µM
COc1cc(C2c3cc4c(cc3OC(N3CCCCC3)C2C)OCO4)cc(OC)c1O (stereo not given)	inactive: 16.9 µM
CN(N=O)c1ccc(/C=C/c2ccnc3ccccc23)cc1	inactive: 46.8 µM
CCN1CCC(O)(C(C(=O)O)c2ccccc2)CC1 (stereo not given)	inactive: > 100 µM
O=C(O)[C@H](NS(=O)(=O)c1ccc2ccccc2c1)c1ccccc1	inactive: > 100 µM
CC(C)Cn1cnc2c(Cl)nc3ccccc3c21	inactive: 86.3 µM
CN(C)c1ccc(/C=C2\N=C(c3ccccc3)N(c3ccc4c(c3)Sc3cc(N5C(=O)/C(=C/c6ccc(N(C)C)cc6)N=C5c5ccccc5)ccc3N4)C2=O)cc1	inactive: 16.8 µM
CC(C)(CN1C(=O)C(Cl)=C(Cl)C1=O)CN1C(=O)C(Cl)=C(Cl)C1=O	inactive: 24.8 µM
Cc1ccc(N2C=Nn3c(nc4sc5c(c4c3=O)CCCC5)C2)cc1	inactive: 72.3 µM
CCOC(=O)C1=C(C(=O)c2ccc(C)cc2)C(c2cccc([N+](=O)[O-])c2)C(C(=O)c2ccc(C)cc2)=C(C(=O)OCC)N1	inactive: 17.2 µM
CC[C@H](C)C1=C(O)[N@+]2([O-])Oc3ccc(-c4c(O)c(O)c(-c5ccc(O)cc5)c(OC(C)=O)c4OC(C)=O)cc3O[C@]2([C@@H](C)CC)C(=O)N1O	inactive: 47.8 µM
Cc1nn(-c2ccccc2)c(S)c1C(=O)c1ccccc1	inactive: 50.8 µM
COC(=O)CC(NC(=O)OCc1ccccc1)C(C(=O)OCc1ccccc1)C(C)(OC)OC (stereo not given)	inactive: 55.7 µM
CCOC(=O)C(NC(=O)CC)(Nc1ccc(S(=O)(=O)Nc2nc(C)cc(C)n2)cc1)C(F)(F)F (stereo not given)	inactive: > 100 µM
C/C(=N\Nc1nc2ccccc2s1)c1cnccn1	inactive: 3.7 µM
O=C1C/C(=C/c2ccc(/C=C3/CC(=O)N(c4cccc(Br)c4)C3=O)cc2)C(=O)N1c1cccc(Br)c1	inactive: > 100 µM
CCCNC(=O)N(C)C(=O)N1N=C(c2ccccc2)C1c1ccccc1 (stereo not given)	inactive: > 100 µM
COc1ccc(CCCN2c3ccccc3Sc3ccccc32)cc1	inactive: > 100 µM
CCCCCCCCCCCCNC(=O)CCC(NC(=O)c1ccc(N(C)Cc2cnc3nc(N)nc(N)c3n2)cc1)C(=O)NCCCCCCCCCCCC (stereo not given)	inactive: > 100 µM
COc1cc(C2C(C(=O)Nc3ccc(Cl)c(Cl)c3)=C(C)NC(C)=C2C(=O)Nc2ccc(Cl)c(Cl)c2)ccc1O	inactive: 16 µM
Cc1oncc1/N=C1\C=C(O)C(=O)c2ccccc21	inactive: 16.7 µM

SMILES	GI50
O=C1NC(NNc2ccccc2)=N/C1=C\c1ccccc1O	inactive: > 100 µM
Cc1ccc2nc(N/N=C/c3ccc(C)s3)cc(C)c2c1	inactive: 3.26 µM
CN(C)CCCc1cccc2[nH]c3c(c12)CN(C)CC3	inactive: > 100 µM
Cn1c(=N)n[n+]([O-])c2ccccc21	inactive: 12.7 µM
Cc1cc(C)n(-c2nsc3ccccc23)n1	inactive: > 100 µM
Cc1nn(-c2ccccc2)c(C)c1/C=N/NC(=O)c1sc(=S)n(-c2ccccc2)c1N	inactive: 3.47 µM
CCOc1cccc2cccnc12	inactive: > 100 µM
COc1cccc(C2c3cc4c(cc3OC(NNc3ccccc3)C2C)OCO4)c1O (stereo not given)	inactive: 3.94 µM
COC(CC1(CCNc2ccccc2)C(=O)N(COCC[Si](C)(C)C)c2ccccc21)OC (stereo not given)	inactive: 15.8 µM
NNC(=S)N/N=C(/C(=O)Nc1ccc(Cl)c(Cl)c1)C(C1OC(=O)c2ccccc21)[N+](=O)[O-] (stereo not given)	inactive: > 100 µM
CN(C)/C=N/S(=O)(=O)c1nn2c(C=O)c(-c3ccc(Cl)cc3)nc2s1	inactive: 13 µM
O=C(O)CNn1c(SCC(=O)O)nnc(/C=C/c2c(O)ccc3ccccc23)c1=O	inactive: 24.5 µM
NC1=CN(Cc2ccccc2)C2=N/C(=C\c3ccco3)C(=O)N12	inactive: > 100 µM
FC(F)(F)c1ccc2c(-c3cc[nH]c3)ccnc2c1	inactive: 18.7 µM
Cn1c(=O)c2c(nc(C[N+]3([O-])CCOCC3)n2C)n(C)c1=O	inactive: > 100 µM
CC1=NN(c2nc(N)nc(CN3CCOCC3)n2)C(C)(C)C1	inactive: > 100 µM
N#C/C=C\c1ccc(-c2cc(C(F)(F)F)cc(C(F)(F)F)c2)o1	inactive: > 100 µM
O=C1CC[C@@H](S(=O)(=O)c2ccccc2)[C@@H](/C=C/c2ccccc2)O1	inactive: > 100 µM
CN(C)CCCC1c2ccccc2Oc2ccc(C(F)(F)F)cc21 (stereo not given)	inactive: 14.5 µM
COc1cc(O)c2c(c1)O[C@@H]1OCC[C@H]21	inactive: > 100 µM
CCNC(=O)Cc1nc2c(N)ncnc2n1C1OC(CO)C(O)C1O (stereo not given)	inactive: > 100 µM
COc1cccc2cc(C(=O)Nc3ccccc3)c(=N)oc12	inactive: > 100 µM

SMILES	GI50
Brc1ccc(-c2cn3ccncc3n2)cc1	inactive: > 100 µM
CN(C)c1[se]nc2c1c(=O)n(C)c(=O)n2C	inactive: > 100 µM
COc1ccc2c(c1)/C(=C\c1c(C)nc3n1CCS3)C(=O)N2	inactive: 44.3 µM
C#CCNCC(=O)O	inactive: > 100 µM
CC1CC(N2CCOCC2)=Nc2ccccc2N1Cc1ccccc1 (stereo not given)	inactive: > 100 µM
CC1(C)Oc2ccccc2N2O[C@@H]3C(=O)N(c4ccccc4)C(=O)[C@@H]3C21c1ccccc1 (stereo not given in full)	inactive: 29.2 µM
C=C1C(=O)OC2/C=C(\CO)CC/C=C(\CO)CC(OC(=O)C(C)C)C12 (stereo not given)	inactive: 34.8 µM
Cc1ccc(C(=O)N/N=C(\N=N\c2cccc(C)c2)c2ccc(N(CCC#N)CCC#N)cc2C)cc1	inactive: > 100 µM
O=C(O)/C=C/C(=O)N1Cc2cc3ccccc3nc2C1	inactive: > 100 µM
C/C=C/[P+](c1ccccc1)(c1ccccc1)c1ccccc1	inactive: 4.99 µM
O=[N+]([O-])c1ccc(/C(=C\c2ccccc2)Cn2ccnc2)cc1	inactive: 56.9 µM
COC(=O)[C@]1(c2cc3ccccc3n2S(=O)(=O)c2ccccc2)CC2CCC1NC2 (stereo not given in full)	inactive: 15.5 µM
COC(=O)c1c(OC(=O)c2ccccc2)noc1CC(=O)OC1C=CCCC1 (stereo not given)	inactive: > 100 µM
O=C(CSCC(=O)N/N=C\c1cc(Cl)cc(Cl)c1O)N/N=C\c1cc(Cl)cc(Cl)c1O	inactive: 1.56 µM
O=[N+]([O-])C(=C(Nc1ccccc1)Nc1ccccc1)/C(Cl)=C(\Cl)[N+](=O)[O-]	inactive: 14 µM
CCCCCCCCCCCC(=O)N(CCCCCCCCCCC(=O)O)CC(O)C(O)C(OC1OC(CO)C(O)C(O)C1O)C(O)CO (stereo not given)	inactive: > 100 µM
O/N=N/c1ccc(-c2ccccc2)cn1	inactive: 33.6 µM
CC[C@]12C=CCN3CCC4(c5cc([C@@]6(C(=O)OC)CC7CN(CCc8c6[nH]c6ccccc86)CC6CCCCC67)c(OC)cc5N(C)C4[C@](O)(C(=O)OC)C1OC(C)=O)[C@@H]32 (stereo not given in full)	active: < 0.01 µM
CC[C@@]1(O)C(=O)OCc2c1cc1n(c2=O)Cc2cc3cc4c(cc3nc2-1)OCO4	active: 0.0171 µM
COc1c(CC=C(C)C)c(O)c(C(CC(C)C)c2c(O)c(CC=C(C)C)c(O)c(C(C)=O)c2O)c(O)c1C(C)=O (stereo not given)	active: 0.423 µM
CCN(CC)CCNc1ccc2ncn3c4c(OC)ccc(O)c4c(=O)c1c23	inactive: 8.67 µM

Reference: ChEMBL document CHEMBL1201862, “PubChem BioAssay data set” (2004)
